T1: Dhr1_(K420A)-13myc (S. cerevisiae) (UniProt Q04217)
T1 sequence: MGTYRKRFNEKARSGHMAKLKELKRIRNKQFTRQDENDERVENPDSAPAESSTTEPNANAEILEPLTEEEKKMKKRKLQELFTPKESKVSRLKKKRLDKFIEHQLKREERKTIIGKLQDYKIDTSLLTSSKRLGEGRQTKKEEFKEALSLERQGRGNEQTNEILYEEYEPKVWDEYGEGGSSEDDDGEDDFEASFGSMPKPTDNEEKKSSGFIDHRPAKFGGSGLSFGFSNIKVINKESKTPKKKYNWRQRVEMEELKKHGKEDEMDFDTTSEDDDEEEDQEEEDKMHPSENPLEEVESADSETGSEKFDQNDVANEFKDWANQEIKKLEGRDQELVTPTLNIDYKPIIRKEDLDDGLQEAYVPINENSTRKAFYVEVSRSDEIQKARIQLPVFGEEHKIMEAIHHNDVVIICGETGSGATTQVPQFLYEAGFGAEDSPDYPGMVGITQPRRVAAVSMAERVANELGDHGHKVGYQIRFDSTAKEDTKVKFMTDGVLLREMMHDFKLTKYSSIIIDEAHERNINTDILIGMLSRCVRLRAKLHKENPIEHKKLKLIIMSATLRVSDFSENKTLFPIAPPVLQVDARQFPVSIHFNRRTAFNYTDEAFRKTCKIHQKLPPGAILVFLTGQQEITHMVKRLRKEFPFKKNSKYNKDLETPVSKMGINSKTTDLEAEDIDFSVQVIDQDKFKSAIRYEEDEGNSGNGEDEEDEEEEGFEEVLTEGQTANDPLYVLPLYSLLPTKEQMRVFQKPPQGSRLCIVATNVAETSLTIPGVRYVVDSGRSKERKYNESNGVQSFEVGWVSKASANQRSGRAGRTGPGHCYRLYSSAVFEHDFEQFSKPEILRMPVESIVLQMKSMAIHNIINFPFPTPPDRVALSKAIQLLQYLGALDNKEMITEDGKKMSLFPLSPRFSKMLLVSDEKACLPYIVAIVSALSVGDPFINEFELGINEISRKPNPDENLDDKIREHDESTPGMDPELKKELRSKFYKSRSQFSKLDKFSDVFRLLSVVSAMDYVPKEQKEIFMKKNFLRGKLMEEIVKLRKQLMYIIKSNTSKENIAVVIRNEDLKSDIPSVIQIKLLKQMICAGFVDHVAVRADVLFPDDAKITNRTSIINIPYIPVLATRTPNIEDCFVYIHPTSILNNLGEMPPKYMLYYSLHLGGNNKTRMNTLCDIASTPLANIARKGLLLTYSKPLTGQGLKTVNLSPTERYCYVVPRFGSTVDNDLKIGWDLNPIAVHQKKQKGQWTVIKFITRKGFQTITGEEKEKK

B1: Imp4 (protein, UniProt P53941 1-290)
chain: MLRRQARERREYLYRKAQELQDSQLQQKRQIIKQALAQGKPLPKELAEDESLQKDFRYDQSLKESEEADDLQVDDEYAATSGIMDPRIIVTTSRDPSTRLSQFAKEIKLLFPNAVRLNRGNYVMPNLVDACKKSGTTDLVVLHEHRGVPTSLTISHFPHGPTAQFSLHNVVMRHDIINAGNQSEVNPHLIFDNFTTALGKRVVCILKHLFNAGPKKDSERVITFANRGDFISVRQHVYVRTREGVEIAEVGPRFEMRLFELRLGTLENKDADVEWQLRRFIRTANKKDYL
B2: Rps2 (uS5) (protein, UniProt P25443 1-254)
chain: MSAPEAQQQKRGGFGGRNRGRPNRRGPRNTEEKGWVPVTKLGRLVKAGKITTIEEIFLHSLPVKEFQIIDTLLPGLQDEVMNIKPVQKQTRAGQRTRFKAVVVVGDSNGHVGLGIKTAKEVAGAIRAGIIIAKLSVIPIRRGYWGTNLGQPHSLATKTTGKCGSVTVRLIPAPRGSGIVASPAVKKLLQLAGVEDVYTQSNGKTRTLENTLKAAFVAIGNTYGFLTPNLWAEQPLPVSPLDIYSDEASAQKKRF
B3: Mpp10 (protein, UniProt P47083 1-593)
chain: MSELFGVLKSNAGRIILKDPSATSKDVKAYIDSVINTCKNGSITKKAELDEITVDGLDANQVWWQVKLVLDSIDGDLIQGIQELKDVVTPSHNLSDGSTLNSSSGEESELEEAESVFKEKQMLSADVSEIEEQSNDSLSENDEEPSMDDEKTSAEAAREEFAEEKRISSGQDERHSSPDPYGINDKFFDLEKFNRDTLAAEDSNEASEGSEDEDIDYFQDMPSDDEEEEAIYYEDFFDKPTKEPVKKHSDVKDPKEDEELDEEEHDSAMDKVKLDLFADEEDEPNAEGVGEASDKNLSSFEKQQIEIRKQIEQLENEAVAEKKWSLKGEVKAKDRPEDALLTEELEFDRTAKPVPVITSEVTESLEDMIRRRIQDSNFDDLQRRTLLDITRKSQRPQFELSDVKSSKSLAEIYEDDYTRAEDESALSEELQKAHSEISELYANLVYKLDVLSSVHFVPKPASTSLEIRVETPTISMEDAQPLYMSNASSLAPQEIYNVGKAEKDGEIRLKNGVAMSKEELTREDKNRLRRALKRKRSKANLPNVNKRSKRNDVVDTLSKAKNITVINQKGEKKDVSGKTKKSRSGPDSTNIKL
B4: Rps3 (uS3) (protein, UniProt P05750 1-240)
chain: MVALISKKRKLVADGVFYAELNEFFTRELAEEGYSGVEVRVTPTKTEVIIRATRTQDVLGENGRRINELTLLVQKRFKYAPGTIVLYAERVQDRGLSAVAQAESMKFKLLNGLAIRRAAYGVVRYVMESGAKGCEVVVSGKLRAARAKAMKFADGFLIHSGQPVNDFIDTATRHVLMRQGVLGIKVKIMRDPAKSRTGPKALPDAVTIIEPKEEEPILAPSVKDYRPAEETEAQAEPVEA

The values below come from paper PMC4340053, “The DEAH-box Helicase Dhr1 Dissociates U3 from the Pre-rRNA to Promote Formation of the Central Pseudoknot” (PLoS Biology, 2015).

These are yes or no findings as the source states them, for the method shown. Binding seen in cells or lysates may run through a third protein. Some binding calls cover weakened binding; strength is not graded here. Sequences can lack the tags named with a protein.

The target in the first experiment is T1, Dhr1_(K420A)-13myc (S. cerevisiae). The experiment can be described thus: co-IP; whole cell extracts of AJY3711 expressing dhr1_(K420A)-13myc, shifted to glucose for 6 h; anti-myc (9e10) antibody 2 h at 4°C, Protein A beads; Western blotting of the precipitate.
In the case of B1, the binding entry was “binds”.

In the case of B2, the binding result is listed as “no binding”.

For B3, the binding result was “binds”.

Regarding B4, the binding entry is “no binding”.

For the next experiment the target is unchanged. The experiment is described as follows: co-sedimentation; whole cell extracts of cycloheximide-treated cells fractionated by sucrose density gradient ultracentrifugation; fractions TCA-precipitated and Western blotted (anti-myc, anti-Mpp10, anti-Imp4). A general note: A western blot detects proteins with antibodies after separation by electrophoresis.
In the case of B1, the binding result was “binds”.

As to B3, the binding entry is given as “binds”.
